# Measured values taken from the supplement of paper PMC10338343.
# ± gives the standard deviation. In all, about 3,700 sequences were measured (“pre-steady-state target cleavage rate”: median about 0.02, highest 2% from about 0.23 on). The list shows a part of the results, in another mix than the full data.
# System: MILI (PIWIL2) piRISC loaded with Kctd7 piRNA (26 nt)
# Test: pre-steady-state target cleavage rate (min^-1); MIWI and MILI are mouse PIWI proteins and EfPiwi is from a freshwater sponge; tags in brackets are library labels; higher = faster piRNA-guided slicing of the target
# Settings: guide: Kctd7 piRNA 5'p-UGUUAAUCUCUCAGAGAAGGUGACAG; auxiliary factor: 500 nM mouse GTSF1
# Outline: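 Sequencing of uncleaved targets, normalised to depth and to weakly complementary targets, was the readout of this Cleave-'n-Seq assay. A transcribed, DNA-blocked target RNA library (0.1 nM) was mixed with 1 nM active affinity-purified piRISC carrying one synthetic guide, with or without 500 nM GTSF1 partner protein, in HEPES–potassium acetate buffer at 33 °C for 0–8 or 0–960 min. Three trials were pooled, k3 was capped at 0.0001 min^-1, and a burst-and-steady-state fit gave the pre-steady-state cleavage rate.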
row,Sequence,pre-steady-state target cleavage rate
1,UAGUGACAGUGCUUGUCUGUGAGAUUAACA,0.0125 ± 0.003
2,UAGUGACAGUGGUACUCUGACAGAUUAACA,< 0.0001
3,UAGUGACACACCUUGCUCUGAGAGAUUAACA,0.0895 ± 0.018
4,UAGUGUGUCACCUUCUCUGAGAGAUUAUCA,0.154 ± 0.023
5,UAGUGACACACGCUUCUCUGAGAGAUUAACA,0.1 ± 0.017
6,UAGUGACAGUCCUUGUCUGAGACAUUAACA,0.0149 ± 0.0049
7,UAGUGGGUCACCUUCUCUGAGAGAUUAACA,0.175 ± 0.01
8,UAGUGUGUCACCUUCUCUGAGCAGAUUAACA,0.012 ± 0.0069
9,UAGUGACAGUGGUUCUGUGAGUGAUUAACA,0.00342 ± 0.0022
10,UAGUGACAGUCGUUCACUGAGAGAUUAACA,0.0106 ± 0.0026
11,UAGUGACUCACCUUCUCUGAGAGUAUAUGA,0.00757 ± 0.0043
12,UAGUGACAGUGGAAGUCUGAAGAGAUUAACA,< 0.0001
13,UAGUGACAGUGGAUCUCUGAGAGAUUUAACA,< 0.0001
14,UAGUCUGUGACCUUCUCUGACAGAUUAACA,0.0291 ± 0.0039
15,UAGUGACAGACGUUCUCUGAGAGAAUAACA,0.00496 ± 0.0031
16,UAGUGACUCACCUUCUCUGAGAGAUUCACA,0.314 ± 0.091
17,UAGUGACACAGGUUCUCUGAGAGAUUAAGA,0.00675 ± 0.0025
18,UAGUGACAGACCUUCUCAGAGACAUUAACA,0.0257 ± 0.0085
19,UAGUGUGACACCUUCACUGAGAGAUUAACA,0.142 ± 0.018
20,UAGUGACAGUGCUUCUGUGAGAGAUAAACA,0.00917 ± 0.0028
21,UAGUGUGUGACCUUGUCUGAGAGAUUAACA,0.0744 ± 0.014
22,UAGUGACACACCUUCUGCUGAGAGAUUAACA,0.0166 ± 0.0089
23,UAGUGAGUCACCUUCUCUGAGAGAUGUAACA,0.312 ± 0.047
24,UAGUGAGUCACGUUCUCUGUGAGAUUAACA,0.0376 ± 0.0033

row,Sequence,pre-steady-state target cleavage rate
1,UAGUCUGGCACCUUCUCUGAGAGAUUAACA,0.165 ± 0.04
2,UAGUGUGUCACCGUCUCUGAGAGAUUAACA,0.113 ± 0.012
3,UAGUGAGUCAGCUUCUCUGAGAGAUAAACA,0.0977 ± 0.026
4,UAGUGACACACCUUCAGAGAGAGAUUUUGA,0.00547 ± 0.0054
5,UAGUCAGUCACCUUCUCUCAGAGAUUAACA,0.0669 ± 0.011
6,UAGUGACUCACCUUCUCUGCGAGAUUAACA,0.0816 ± 0.0094
7,UAGUCUGUCACCUACUCUGAGAGAUUAUGA,0.0285 ± 0.0078
8,UAGUCUGUCACCUUCUCUGAGAGAAUAACA,0.193 ± 0.039
9,UAGUGACAGACGUUCUCUGAGACAUUAACA,0.00396 ± 0.0022
10,UAGUGACAGUGCUUCUCAGAGAGAUUAACA,0.00894 ± 0.0031
11,UAGUGACACACCUUCUCUGAGAGAUUGACA,0.154 ± 0.024
12,UAGUCUGUCACCUUCUCUGAGAUGAUUAACA,0.12 ± 0.0075
13,UAGUGAGUCAGCUUCUCUGAGAGUUUAACA,0.101 ± 0.024
14,UAGUGACUCACCUCUCUGAGAGAUUAACA,0.0549 ± 0.0098
15,UAGUGUGUCACCUUGUCUGAGAGUUUAACA,0.0303 ± 0.014
16,UAGUGAGUCACCUUCUGUGAGAGAAUAACA,0.025 ± 0.0073
17,UAGUGUGUCACCUUCCUGAGAGAUUAACA,0.133 ± 0.046
18,UAGUGACAGUGGAACUCUGAGUCUAAUUGA [g10:g16:cont:t1A],0.0578 ± 0.032
19,UAGUGACACACCUUCUCUGAGAAAUUAACA,0.219 ± 0.035
20,UAGUGAGUCACCUUCUCUGAGAGCUUAACA,0.155 ± 0.026
21,UAGUGACAGUGCUUCUCGGAGAGAUUAACA,0.00937 ± 0.0027
22,UAGUGUGUGACGUUCUCUGAGAGAUUAACA,0.133 ± 0.012
23,UAGUGUGUCCCCUUCUCUGAGAGAUUAACA,0.218 ± 0.018
24,UAGUGAGUCACCAUCACUGAGAGAUUAACA,0.176 ± 0.014

row,Sequence,pre-steady-state target cleavage rate
1,UAGUGAGUCACCUACUCUGAGAGAUUAACA,0.215 ± 0.018
2,UAGUCACUCACCUUCUCUGAGAGAUUAUGA,0.0149 ± 0.0073
3,UAGUGAGUCACCUUAUCUGAGAGAUUAACA,0.119 ± 0.015
4,UAGUCACACACCUUCUCUGAGAGAUUUUGA,0.0392 ± 0.015
5,UAGUGAGUCACCGUCUCUGAGAGAUUAACA,0.151 ± 0.012
6,UAGUGACAGUCCUUCUCUGACAGAAUAACA,< 0.0001
7,UAGUGAGUCACCUUCUCUGAGUGUUUAACA,0.0119 ± 0.006
8,UAGUCUGUCAGCUUCUCUGUGAGAUUAACA,0.0393 ± 0.0027
9,UAGUGAGUCACCUUCUCUGAGAGAUAAAGA,0.00919 ± 0.0072
10,UAGUGACAGUGAUUCUCUGAGAGAUUAACA,0.00524 ± 0.0023
11,UAGUGACACACCUUCUCUGAGAGAUUAACU [g2:g22:cont:t1U],0.13 ± 0.014
12,UAGUGACAGUGCUUCUCUGAUAGAUUAACA,0.00605 ± 0.0024
13,UAGUCUGUCACCUACUCUGAGACAUUAACA,0.027 ± 0.0046
14,UAGUCUGUCACCUUCUGAGAGAGAUUAAGA,0.0268 ± 0.0096
15,UAGUGUGUCUCCAUCUCUGAGAGAUUAACA,0.0826 ± 0.012
16,UAGUGACAGUGGUUCUCUGGGAGAUUAACA,0.00577 ± 0.0014
17,UAGUGACUCAGGUUCUCUGAGAGAUUAAGA,0.00269 ± 0.0022
18,UAGUGACACACCUUCUCUGAGAGAAAAACA,0.0335 ± 0.014
19,UAGUCUGUCACCUUCUCUGAGAGAUGAACA,0.123 ± 0.028
20,UAGUGUGUCACCUUCUCUGAGAGAUAUAACA,0.188 ± 0.02
21,UAGUGACAGACCUACUCUGUGAGAUUAACA,0.0199 ± 0.0049
22,UAGUGACAGUCCUUCUCUGAGAGAUUAUACA,0.0468 ± 0.0077
23,UAGUGACAGACCUUCUCUGUGACAUUAACA,0.0127 ± 0.0045
24,UAGUGAGUCUCCUUCUCUGAGAGAAUAACA,0.0614 ± 0.015
